According to PubChem BioAssay AID463173 (ICCB-Longwood Screening Facility, Harvard Medical School, 2010):
Among all 52,000 compounds or so, about 1,700 (3.3%) were called active. No stated cut-off is given here; in the data, active means survival mostly below about 52% (no sharp cut-off); inactive means mostly above about 56%. The list shows a part of the results.

Tested on: Wild type
Test: growth inhibition of S. aureus wild type versus tarO mutant, primary screen, teichoic acid synthesis inhibitors, RN4220, OD600 (AID 463173)
Settings: S. aureus RN4220 wild type/DeltatarO growth, OD600, 18 h, stronger effect = lower value, screened at 18.75 µg/mL (by protocol)

| Compound | survival |
| --- | --- |
| COc1ccc(NC(=O)c2noc3c2CCCC3)cc1Cl | inactive: 82% |
| Cc1cc(C)c(NC(=O)CSc2nc(=O)[nH]c3c2CCCC3)c(C)c1 | inactive: 92% |
| CC(C)(C)c1ccc(OCC(=O)N2CCC(c3nc4ccccc4s3)CC2)cc1 | inactive: 85% |
| CCCOC1(C(F)(F)F)NC(=O)N(c2ccc(Cl)cc2)C1=O (stereo not drawn) | inactive: 90% |
| CCOc1ccc(-c2nnc(Nc3ccc(S(N)(=O)=O)cc3)c3ccccc23)cc1 | inactive: 88% |
| Cc1oc2c(c(C)cc3oc(=O)c(CC(=O)NCCc4ccccc4)c(C)c32)c1C | inactive: 112% |
| CN1C(C(=O)c2ccccc2)=C(OC(=O)c2ccc(Br)cc2)c2ccccc2S1(=O)=O | inactive: 96% |
| O=C(NC(=O)c1ccc(F)cc1)Nc1ccc(-c2cc(C(F)(F)F)nn2-c2ccccc2)cc1 | inactive: 85% |
| O=C(NCCc1csc2nc(-c3ccccc3F)nn12)c1ccco1 | inactive: 71% |
| CCOC(=O)c1c(C)[nH]c(C)c1S(=O)(=O)NCC(=O)Nc1cc(C)ccc1OC | inactive: 75% |
| COc1ccccc1NC(=O)c1c(NCc2ccc(OC)c(OC)c2OC)sc2c1CCCC2 | inactive: 92% |
| COc1ccc(NC(=O)c2cc3c(=O)n(Cc4ccco4)ccc3nc2C)cc1 | inactive: 49% |
| Cc1ccc(NC(=O)Nc2ccc3c(c2)N(C)C(=O)c2ccccc2S3)c(C)c1 | inactive: 103% |
| Sc1ccc2oc3ccc(S)cc3c2c1 | inactive: 104% |
| O=C(CSc1nnc(CNc2cccc(Cl)c2)o1)Nc1cccc(Cl)c1 | inactive: 101% |
| COc1ccc(N2CCN(S(=O)(=O)CCNC(=O)C(c3ccccc3)c3ccccc3)CC2)cc1 | inactive: 85% |
| CCN1CCN(CCCNC(=O)c2cnn(-c3ccccc3)c2C2CCN(C(=O)OC(C)(C)C)CC2)CC1 | inactive: 64% |
| CCOC(=O)c1ccc(Nc2nc3ccccc3nc2NS(=O)(=O)c2ccc(Cl)cc2)cc1 | inactive: 59% |
| Cc1ccc(-c2c(CN3CCN(c4cccc(C(F)(F)F)c4)CC3)csc2C)cc1 | inactive: 86% |
| COc1cccc(C2C=C(c3ccc(C)c(C)c3)Nc3nnnn32)c1OC (stereo not drawn) | inactive: 71% |

| Compound | survival |
| --- | --- |
| COc1cc(NC(=O)c2ccc(C)cc2)ccc1NC(=O)c1cc2ccccc2o1 | inactive: 75% |
| Cc1ccc(C)c(CN2C(=O)C(=O)c3ccccc32)c1 | inactive: 81% |
| CCCC(=O)c1cc(F)c(N2CCOCC2)cc1C | inactive: 121% |
| O=C1CSC2(C(=O)N(Cc3ccccc3F)c3ccccc32)N1c1ccc(F)cc1 (stereo not drawn) | inactive: 71% |
| CCOC(=O)C1=C(C)C(c2ccc(OC)cc2)NC(=O)N1 (stereo not drawn) | inactive: 103% |
| CCSc1nnc2n(-c3cccc(C)c3)c(=O)c3c4c(sc3n12)CCCC4 | inactive: 81% |
| COc1ccc(CCC(=O)N2CCc3c([nH]c4ccccc34)C2c2ccc(F)cc2)cc1 (stereo not drawn) | inactive: 92% |
| Cc1ccc2onc(CNC(=O)N3CCN(c4cccc(C)c4C)CC3)c2c1 | inactive: 57% |
| COc1ccc(-c2cc(C(=O)Nc3cccnc3Cl)no2)cc1OC | inactive: 140% |
| O=C(NCCc1ccccc1)c1ccc(CS(=O)(=O)c2ccc(Br)cc2)o1 | inactive: 129% |
| COc1ccc(-n2ccnc2SCC(=O)Nc2ccc(F)cc2F)cc1 | inactive: 143% |
| Cc1cc2nn(-c3ccccc3)nc2cc1NC(=O)c1cccc2c(Cl)cccc12 | inactive: 70% |
| O=C(CN1CCC(N2CCCCC2)CC1)NC(c1ccccc1)c1ccccc1 | inactive: 97% |
| Cc1nc2cccnc2n1-c1cccc(C(=O)N2CCN(c3ccc(Cl)cc3)CC2)c1 | inactive: 58% |
| CCN(CCCNC(=O)Cn1ncc2c([nH]c3ccc(C)cc32)c1=O)c1cccc(C)c1 | inactive: 59% |
| CCC(=O)N1c2ccccc2CC1C(=O)NCc1ccc(OC(C)C)cc1 (stereo not drawn) | inactive: 113% |
| Cc1cccc(CCNC(=O)c2sc3nc4n(c(=O)c3c2C)CCCC4)c1 | inactive: 85% |
| O=S(=O)(/C=C/c1ccccc1)N1CCOCC1 | inactive: 110% |
| COc1ccc(C2CC(=O)Nc3c2c(C)nn3-c2nncc(-c3ccc(C)cc3)n2)c(OC)c1OC (stereo not drawn) | inactive: 99% |
| CCOc1ccc(-c2nc(SCC(=O)Nc3ccc4c(c3)OCO4)c(-c3ccc(F)cc3)[nH]2)cc1 | inactive: 98% |

| Compound | survival |
| --- | --- |
| Cc1csc2nc(-c3cccc(NC(=O)C(C)C)c3)cn12 | inactive: 80% |
| CCc1ccccc1NC(=O)c1ccc2c(c1)N(Cc1cccc(Cl)c1)C(=O)c1ccccc1S2(=O)=O | inactive: 93% |
| CN1C(=O)c2ccccc2Sc2ccc(NC(=O)c3ccccc3F)cc21 | inactive: 73% |
| O=C(Cn1c(C(=O)NCc2ccco2)cc2sccc21)c1ccccc1 | inactive: 115% |
| CCOC(=O)c1cccc(NC(=O)[C@@H](c2ccccc2)N2Cc3ccccc3C2=O)c1 | inactive: 71% |
| Cc1c(-c2nsc(NC(=O)c3ccccc3)n2)nnn1-c1ccc(C(F)(F)F)c(Cl)c1 | inactive: 80% |
| CCCNC(=O)N1CCC(C(=O)c2cccc(F)c2)CC1 | inactive: 96% |
| Cc1cc(C)c(NC(=O)Cc2csc(C)n2)c(Cl)c1 | inactive: 81% |
| COc1cccc2c(=O)c(C(=O)NCc3cccs3)c[nH]c12 | inactive: 108% |
| CCN1C(=O)c2ccccc2Sc2ccc(C(=O)NCCCN(CC(C)C)CC(C)C)cc21 | inactive: 93% |
| CCCC(=O)Nc1nnc(CCC)s1 | inactive: 107% |
| CCOc1ccccc1C1C(C(=O)N2CCCCC2)=C(C)Nc2nc3ccccc3n21 (stereo not drawn) | inactive: 73% |
| CCOc1ccccc1NC(=O)c1nn(-c2ccc(C)cc2)c(=O)n(C)c1=O | inactive: 91% |
| Cc1ccc(C(=O)Nc2ccc(-c3cn4cccnc4n3)cc2)cc1C | inactive: 80% |
| COc1ccccc1CNc1ccc(-c2nc(-c3cccnc3)no2)cc1[N+](=O)[O-] | inactive: 78% |
| COC(=O)c1c(-c2cccs2)csc1NC(=O)COc1ccc(C(C)(C)C)cc1 | inactive: 78% |
| CCc1ccc(NC(=O)c2sc(-n3nc(C)c(Cc4ccc(OC)cc4)c3C)nc2C)cc1 | inactive: 121% |
| O=C(CCC1CCCCC1)Nc1c[nH]c(=O)[nH]c1=O | inactive: 104% |
